Hit rate of the full screen: of about 220,000 compounds, about 16,000 (7.3%) were called active. This list was built around the results that the source calls inconclusive (neither active nor inactive); the mix of calls is not that of the screen. Calls follow the shape of the dose curve; as a rule, active = well fitted inhibition curve with a large enough effect (not every such curve was filed as active); inconclusive = small, poorly fitted or top-dose-only effect, or another doubt; inactive = no such curve, though single readings can be large or run the other way. Potencies of inconclusive entries are left out as doubtful fits.
What follows are compounds tested against Aldehyde dehydrogenase 1A1 (Homo sapiens) (UniProt P00352) (assay: qHTS Assay for Inhibitors of Aldehyde Dehydrogenase 1 (ALDH1A1)). Conditions: Purified ALDH1A1, NADH fluorescence, propionaldehyde substrate; series mostly up to 75.3 µM; activity, negative = inhibition: at the top concentration.
Sequence of UniProt P00352 (P00352 whole entry, looked up): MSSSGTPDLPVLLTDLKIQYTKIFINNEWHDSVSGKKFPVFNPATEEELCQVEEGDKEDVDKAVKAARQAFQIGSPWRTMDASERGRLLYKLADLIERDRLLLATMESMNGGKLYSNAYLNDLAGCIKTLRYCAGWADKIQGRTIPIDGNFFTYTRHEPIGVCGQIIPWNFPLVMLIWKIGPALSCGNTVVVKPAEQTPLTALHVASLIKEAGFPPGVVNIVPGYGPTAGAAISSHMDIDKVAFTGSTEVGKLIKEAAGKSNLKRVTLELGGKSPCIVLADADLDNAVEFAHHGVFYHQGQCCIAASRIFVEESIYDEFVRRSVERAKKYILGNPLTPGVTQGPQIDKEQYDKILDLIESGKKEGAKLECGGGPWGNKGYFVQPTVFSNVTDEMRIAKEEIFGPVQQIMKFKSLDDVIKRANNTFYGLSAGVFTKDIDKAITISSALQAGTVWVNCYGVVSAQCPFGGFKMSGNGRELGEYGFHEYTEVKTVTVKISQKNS
With CC(=O)c1ccc(N2Cc3ccccc3C2=NC(=O)c2cccs2)cc1 the Potency was inconclusive [inhibitor, single point].
For O=C(c1ccncc1)N1CCC[C@@]2(CCN(c3ccccc3)C2)C1, the Potency was inconclusive [inhibitor, single point].
With OC(CN1CCN(c2cccc(C(F)(F)F)c2)CC1)c1c[nH]c2ccccc12 (stereo not drawn) the Potency was inconclusive [inhibitor, single point].
In the case of N=c1occ(C(=O)c2cc(F)ccc2O)cc1C(=O)NC1CCCCC1, the Potency is reported as inconclusive [inhibitor, partial curve].
In the case of O=C(NCCc1c[nH]c2ccccc12)c1cc(S(=O)(=O)N2CCCCC2)ccc1N1CCOCC1, the Potency is reported as inconclusive [inhibitor, partial curve].
In the case of COc1ccc(C(=O)NCC(=O)OCC(=O)Nc2cc([N+](=O)[O-])ccc2F)cc1, the Potency is reported as active: 1.58 µM.
CC(C)CNC(=O)COC(=O)c1ccc(Cl)c(S(=O)(=O)N2CCc3ccccc32)c1 was tested, and the Potency was inconclusive [inhibitor, partial curve, poor fit].
CS(=O)(=O)N1CCC2(CCCN(Cc3ccccc3)C2)CC1 was tested, and the “activity, negative = inhibition” value was inactive: 11.6%.
For COc1cccc(-c2csc(N3CCN(C(=S)Nc4ccccc4Cl)CC3)n2)c1, the “activity, negative = inhibition” value was inactive: -10.4%.
For COc1ccc(CCN(Cc2nc3ccccc3c(=O)[nH]2)C(=O)c2ccco2)cc1, the “activity, negative = inhibition” value was inactive: -3.32%.
O=C(Nc1nnc(-c2cccs2)o1)C1CC1 was tested, and the Potency was inconclusive [inhibitor, single point].
In the case of CCOC(=O)c1cnc(-n2nc(C)cc2C)nc1NCc1ccc2c(c1)OCO2, the “activity, negative = inhibition” value is reported as inactive: -8.73%.
For O=C(/C(Cl)=C/Nc1ccc(Br)cn1)C(F)(F)F, the Potency was inconclusive [inhibitor, single point].
For CCOc1ccc(N(C(=O)c2cc3ccccc3oc2=O)C2C=CS(=O)(=O)C2)cc1 (stereo not drawn), the Potency was inconclusive [inhibitor, single point].
COc1ccc(NC(=S)N(CCCN2CCOCC2)C(C)c2cc3cccc(OC)c3o2)cc1 (stereo not drawn) was tested, and the Potency was inconclusive [inhibitor, single point].
For Cc1nc(NCc2ccccc2)c2nc(-c3ccccc3)n(CCCN(C)C)c2n1, the Potency was inconclusive [inhibitor, partial curve].
In the case of C=C(C)CNC(=S)NNC(=O)c1ccc(Br)cc1, the “activity, negative = inhibition” value is reported as inactive: -8.84%.
For CC(C)(C)c1ccc(S(=O)(=O)Nc2ccc(Cc3ccncc3)cc2)cc1, the Potency was active: 1.12 µM.
In the case of CSC(=S)N/N=C/c1ccc(N(C)C)cc1, the Potency is reported as inconclusive [inhibitor, partial curve].
In the case of COCCN1C(=O)C(=O)/C(=C(/O)c2ccc(C)cc2)C1c1ccccn1 (stereo not drawn), the “activity, negative = inhibition” value is reported as inactive: -3.92%.
Cc1cc(NC(=O)CSc2nc3c(c(-c4cccnc4)c2C#N)CCC3)no1 was tested, and the Potency was inconclusive [inhibitor, single point].
CC(=O)Nc1cccc([N+](=O)[O-])c1 was tested, and the “activity, negative = inhibition” value was inactive: 2.07%.
In the case of O=C(c1nnc(-c2ccc(Cl)cc2)o1)C1CCCC1, the Potency is reported as inconclusive [inhibitor, single point].
With CCOC(=O)Cc1c(C)c2c(O)cc(O)cc2oc1=O the Potency was inconclusive [inhibitor, partial curve].
For CCOC(=O)C1=C(CSc2nc3c(cc2C#N)CN(C)CC3)OC(N)=C(C#N)C1c1ccccc1 (stereo not drawn), the Potency was inconclusive [inhibitor, single point].
For CC(C)NS(=O)(=O)c1cc(C(=O)O)ccc1Cl, the “activity, negative = inhibition” value was inactive: -0.942%.
With CCOC(=O)N1CCN(Cc2nc3ccc([N+](=O)[O-])cc3c(=O)n2-c2cccc(OC)c2)CC1 the Potency was inconclusive [inhibitor, single point].
In the case of O=C(Cn1[nH]c(=O)c2ccccc2c1=O)Nc1cccc(-c2nnc3n2CCCCC3)c1, the Potency is reported as inconclusive [inhibitor, single point].
In the case of CCn1c(C)c(C(C)=O)c(N2CCN(c3ccccn3)CC2)nc1=S, the “activity, negative = inhibition” value is reported as inactive: 6.75%.
In the case of CCN1CCN(S(=O)(=O)c2ccc(S(=O)(=O)N(CC)Cc3ccccc3)cc2)CC1, the Potency is reported as inconclusive [inhibitor, partial curve].
With Cc1ccc(S(=O)(=O)Oc2ccc(N=Nc3ccc(-c4ccc(N=Nc5c(O)ccc6cc(S(=O)(=O)O)cc(S(=O)(=O)O)c56)c(C)c4)cc3C)cc2)cc1 the Potency was inconclusive [inhibitor, single point].
In the case of C=CC1=C2C=C(C3CC3)N(C3CCCC3)C=C2C(=O)C(C)(OC(=O)c2ccco2)C1=O (stereo not drawn), the activity, negative = inhibition is reported as inactive: 7.81% [at 13.5 µM].
O=C(COC(=O)c1cc(-c2ccco2)nc2ccccc12)NCc1ccc2c(c1)OCO2 was tested, and the Potency was inconclusive [inhibitor, partial curve].
In the case of CSc1nc2nc3c(c(=O)n2[nH]1)CCC3, the Potency is reported as inconclusive [inhibitor, single point].
With CCOc1cc2[nH]c(=S)n(CCOC)c(=O)c2cc1OCC the Potency was inconclusive [inhibitor, partial curve].
With Cc1ccnc(NC(c2ccccn2)c2c(C)[nH]c3ccccc23)c1 (stereo not drawn) the Potency was inconclusive [inhibitor, single point].
In the case of O=C1CCCN1c1ccc(S(=O)(=O)Nc2ccc3c(c2)OCCO3)cc1, the “activity, negative = inhibition” value is reported as inactive: -7.32%.
In the case of CCN(CC)C(=O)Cn1cnc2sc(C(=O)Nc3cc(OC)c(OC)c(OC)c3)c(C)c2c1=O, the “activity, negative = inhibition” value is reported as inactive: -3.29%.
COc1ccc(-c2cc(=O)oc3cc(OCc4nn[nH]n4)ccc23)cc1 was tested, and the Potency was inconclusive [inhibitor, single point].
With Cc1ccc(-c2cc(C(F)F)n3ncc(C(=O)N4CCN(c5cccc(C)c5C)CC4)c3n2)cc1 the Potency was inconclusive [inhibitor, partial curve].
With Cc1cccc(Cn2c(Cc3ccccc3)nc3ccccc32)c1 the “activity, negative = inhibition” value was inactive: -3.69%.
For CCc1nnc(NC(=O)c2sc3nc4c(cc3c2N)CCCCC4)s1, the Potency was inconclusive [inhibitor, partial curve].
With N#CC1=C(N)C(C#N)(C#N)[C@H](c2ccncc2)[C@H]2CC3(CC=C12)OCCO3 the Potency was inconclusive [inhibitor, single point].
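For activity, negative = inhibition in this document: plate controls were no enzyme wells and a reference inhibitor.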
Potency is read from the fitted curve at half-maximal effect; tags tell the direction and shape of the fitted curve.
